# Laboratory results: the supplement of paper PMC4604168 (melanoma cell lines)
# The other results are listed elsewhere or left out. Most values come without repeats; read them as rough.
# Legend:
# Assay in all cases: cell count relative to DMSO control; melanoma cells; higher = more viable cells
# Conditions in all cases: library dose: standard library concentration; 72 h; first compound 2 µM
# G361 = test system: G361
# IPC-298 = test system: IPC-298
# IST-MEL1 = test system: IST-MEL1
# LB2518-MEL = test system: LB2518-MEL
# LOXIMVI = test system: LOXIMVI
# MEL-HO = test system: MEL-HO
# MZ2-MEL = test system: MZ2-MEL
# MeWo = test system: MeWo
# RPMI7951 = test system: RPMI7951
# RVH-421 = test system: RVH-421
# SkMel28 = test system: SkMel28
# SkMel2 = test system: SkMel2
# SkMel30 = test system: SkMel30
# SkMel5 = test system: SkMel5
# UACC257 = test system: UACC257
# UACC62 = test system: UACC62
# WM115 = test system: WM115
# WM1716 = test system: WM1716
# WM3526 = test system: WM3526
# WM1745 = test system: WM1745
# 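Further: cells treated in 1,536-well plates, then fixed and DAPI-stained, with nuclei counted from automated high-throughput microscope images.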
Compound,cell count (G361) [%],cell count (IPC-298) [%],cell count (IST-MEL1) [%],cell count (LB2518-MEL) [%],cell count (LOXIMVI) [%],cell count (MEL-HO) [%],cell count (MZ2-MEL) [%],cell count (MeWo) [%],cell count (RPMI7951) [%],cell count (RVH-421) [%],cell count (SkMel28) [%],cell count (SkMel2) [%],cell count (SkMel30) [%],cell count (SkMel5) [%],cell count (UACC257) [%],cell count (UACC62) [%],cell count (WM115) [%],cell count (WM1716) [%],cell count (WM3526) [%],cell count (WM1745) [%]
C[C@@H](N)c1ccc(C(=O)Nc2ccnc3[nH]ccc23)cc1 + O=c1cc(-c2cccc3c2Sc2ccccc2S3)oc(N2CCOCC2)c1 [KU55933] (partner dose 5 µM),54.1,78.6,85.2,85.6,92.8,66.3,51.5,69,60.3,71.8,105,104,102,76.9,65.9,89.5,88.8,39.9,79.3,
CCCCCCCCCCCCCCCCCCOP(=O)([O-])OC1CC[N+](C)(C)CC1 [Perifosine] + Cn1cc(/C=C2\C(=O)Nc3cccnc32)c2ccccc21 [GW441756] (partner dose 2 µM),79.9,77.3,94.8,119,88.1,77.4,80.7,96.3,55.2,71.6,78.9,104,100,73.2,77.5,65.1,93.9,130,86,
Cn1sc(=O)n(Cc2ccccc2)c1=O + O=S(=O)(c1ccccc1)N(CC(F)(F)F)c1ccc(C(O)(C(F)(F)F)C(F)(F)F)cc1 [T0901317] (partner dose 7 µM),91,88.4,113,87.7,114,117,103,94.6,105,127,74.1,93.8,91.6,98.2,94.2,67.6,99.9,140,97,
CCCCCCCCCCCCCCCCCCOP(=O)([O-])OC1CC[N+](C)(C)CC1 [Perifosine] + COc1cc(N2CCC(N3CCN(C)CC3)CC2)ccc1Nc1ncc(Cl)c(Nc2ccccc2S(=O)(=O)C(C)C)n1 [NVP-TAE684] (partner dose 0.4 µM),96.7,82.6,96.2,95,87,78.3,86.2,74.3,32.5,88.9,68.4,65,109,69.4,83.4,62.9,56.3,94.3,68.2,
Cn1sc(=O)n(Cc2ccccc2)c1=O + Cn1cc(/C=C2\C(=O)Nc3cccnc32)c2ccccc21 [GW441756] (partner dose 2 µM),93.4,101,99.6,102,85.6,86,89,90.9,73.1,116,29.1,98.3,81.7,49,85.3,73,105,104,88.9,
C[C@@H](N)c1ccc(C(=O)Nc2ccnc3[nH]ccc23)cc1 + CN(c1ncccc1CNc1nc(Nc2ccc3c(c2)CC(=O)N3)ncc1C(F)(F)F)S(C)(=O)=O [PF562271] (partner dose 0.4 µM),53.4,74.6,88.8,,66.6,46.5,,77.7,30.4,65.5,53.7,68.5,84.1,59.3,47.4,62.4,80.9,44.6,91.8,26.1
CCCCCCCCCCCCCCCCCCOP(=O)([O-])OC1CC[N+](C)(C)CC1 [Perifosine] + Cn1c(=O)n(-c2ccc(C(C)(C)C#N)cc2)c2c3cc(-c4cnc5ccccc5c4)ccc3ncc21 [NVP-BEZ235] (partner dose 0.02 µM),61.6,69.5,71.4,,79.5,74.6,,69.8,36.1,73.3,50.5,66.8,73,66.4,93.7,63.3,66.6,65.6,75.7,75.8
CCCCCCCCCCCCCCCCCCOP(=O)([O-])OC1CC[N+](C)(C)CC1 [Perifosine] + COC(=O)c1sccc1S(=O)(=O)Nc1ccc(Nc2ccccc2)cc1OC [GSK0660] (partner dose 5 µM),103,97.9,93.2,92.3,148,91,90.6,94.5,40.4,84,114,92.9,90.7,87.8,93.1,71.5,74.2,90.1,96.4,
Cn1sc(=O)n(Cc2ccccc2)c1=O + Cc1cc([N+](=O)[O-])ccc1NS(=O)(=O)c1cc(Cl)ccc1Cl [FH535] (partner dose 5 µM),34.9,49.6,49.3,78.4,99.7,48.1,64,82.8,74,72.8,69.8,78.1,104,69.4,66.4,81.5,86.9,77.2,81.4,
CCCCCCCCCCCCCCCCCCOP(=O)([O-])OC1CC[N+](C)(C)CC1 [Perifosine] + CC(C)CCN1c2nc(Nc3cc(F)c(O)c(F)c3)ncc2N(C)C(=O)C1C [BID1870] (partner dose 1 µM),71.5,72.6,84.1,111,92.6,77.6,111,79.3,61.1,87.5,52.5,82.7,66.2,80.3,101,77.5,106,108,75.7,
